From a collection of fitness landscapes (doi:10.1016/j.celrep.2020.107928)
Over roughly 81,000 sequences, “one-hybrid fitness for binding parS DNA” has its median near -0.17; the highest 2% begin near 0.51. This is one part of the list.

B1: Caulobacter ParB omega fusion; a variant is named by its letters at X, in order, B8GW30 (parent)
chain: MESVVVGEPGMSEGRRGLGRGLSALLGEVDAAPAQAPGEQLGGSREAPIEILQRNPDQPRRTFREEDLEDLSNSIREKGVLQPILVRPSPDTAGEYQIVAGERAWRAAQRAGLKTVPIMVRELDDLAVLEIGIIENVQRADLNVLEEALSYKVLMEKFERTQENIAQTIGKSXSHVANXMRLLXLPDEVQSYLVSGELTAXHARAIAAAADPVALAKQIIEGGLSVRETEALARKAPNLSAGKSKGGRPPRVKDTDTQALESDLSSVLGLDVSIDHRGSTGTLTITYATLEQLDDLCNRLTRGI

Variants of: B1
Test: one-hybrid fitness for binding parS DNA (scaled: cognate 1, non-cognate 0); higher = stronger binding
Details: with parS DNA site
Procedure, shortened: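 Values were rescaled so that cognate is 1 and non-cognate is 0. Each is a fitness, the log change in a variant's read ratio to wild type from Illumina reads of plasmids before and after selection, with three replicate libraries pooled and variants under 10 reads dropped. Selection of the Caulobacter ParB libraries, four specificity codons randomised, used E. coli USO with a HIS3 reporter, site 19 bp from the promoter, on M9-minus-histidine with 0.1 mM IPTG and 5 mM 3-AT for 48 hours at 37°C.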

one-hybrid fitness for binding parS DNA, 0.402:
IKIM

one-hybrid fitness for binding parS DNA, ≤ 0.2:
DLPF
KLYV
GMQR
TLYN
EAAA
EAGL
IDSF
MDPG
HVMY
PAAV
MWNG
KQHG
VETS
KQMT
LTRY
QCYY
YTVM
YSSS
ICTL
VWKG
TLCW
LEKS
MIWS
LKLC
YLLD
AYKC
FLWC
SQMS
MKSM
TGMS
SDVV
LCHT
PMAV
PQMG
ACTW
VPQR
QHHN
MAYS
VRET
KSYC
QTRH
LALS
TPQI
NSGS
RWPI
KVHD
PWCG
FPGR
SCHM
KDLR
TTDL
HIKY
FVQR
RPEA
HKMT
FLWR
YGTP
LNMW
QPVI
RGHF
GTDG
NTYG
CWTG
FWTS
TTAC
PHQC
QNIY
MCER
PSHT
TAFR
WNFG
ENYA
NKHA
KLVG

one-hybrid fitness for binding parS DNA, 0.211:
RMQK
